Our source for the activation values is PubChem BioAssay AID1346428 (National Center for Advancing Translational Sciences (NCATS), 2018).

Screen size: about 48,000 compounds; about 1,200 (2.5%) were called active. About 2% were inconclusive and are not listed.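 The calls were made as follows: active = activation of at least 60% and not above a set upper limit (about 1 call in 100 departs from these limits); inconclusive = activation of 40% to 60%, or above that upper limit; inactive = activation under 40%.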 The list shows a part of the results.

Chain of UniProt O75388 (O75388 whole entry, looked up): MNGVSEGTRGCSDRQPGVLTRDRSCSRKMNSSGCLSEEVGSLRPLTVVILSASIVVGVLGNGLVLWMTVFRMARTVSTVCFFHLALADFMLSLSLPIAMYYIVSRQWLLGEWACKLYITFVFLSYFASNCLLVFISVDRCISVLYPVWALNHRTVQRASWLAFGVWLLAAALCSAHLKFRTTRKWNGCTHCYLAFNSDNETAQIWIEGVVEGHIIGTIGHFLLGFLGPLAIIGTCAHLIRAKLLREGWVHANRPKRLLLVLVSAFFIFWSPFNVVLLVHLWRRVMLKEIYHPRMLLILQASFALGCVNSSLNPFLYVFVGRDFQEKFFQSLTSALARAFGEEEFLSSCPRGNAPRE

This assay deals with Probable G-protein coupled receptor 32 (Homo sapiens) (UniProt O75388). The experiment in a line: qHTS for Agonists of Human Resolvin D1 Receptor DRV1. As to conditions: CHO-K1 GPR32 beta-arrestin PathHunter luminescence, 90 min; at 76.9 µM; stronger effect = higher value; zero percent set by DMSO-only wells. The essentials:
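Using DMSO wells as EC0, agonist-induced signal was taken as chemiluminescence from beta-Gal reconstituted upon beta-arrestin recruitment to GPR32 in CHO-K1 cells after 90 min compound treatment.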
(Quantitative high-throughput screening tests each substance at several concentrations.)
`CCCCOC(=O)c1ccc(NC(=O)CSc2nc3c(c(=O)[nH]2)CCC3)cc1`: the activation was inactive: -5.1%.

With `CC(=O)c1ccc(N2CCN(c3ncnc4onc(-c5ccc(Cl)cc5)c34)CC2)cc1`, the activation is inactive: 3.33%.

Take `COc1cc(-c2nc3cccc(C)n3c2Nc2ccc3c(c2)OCCO3)ccc1O`: the activation is active: 61.2%.

As to `COc1ccccc1CNC(=O)c1cccc(NC(=O)N2CCSc3ncccc32)c1`, the activation is inactive: 8.09%.

For `CCOc1ccccc1C(=O)NCC(c1ccc(N(C)C)cc1)N1CCc2ccccc21` (stereo not given), the activation was inactive: -37.5%.

Regarding `Oc1c(C(c2ccc(Cl)cc2)N2CCCC2)sc2nc(-c3ccco3)nn12` (stereo not given), the activation was inactive: 18.2%.

Regarding `CCOc1cc(-c2ccc(OC(=O)c3ccc(Cl)cc3)c(OC)c2)cc(=O)c2c(C)oc(C)c12`, the activation was inactive: -17.3%.

Take `Cc1c(C(=O)NCc2ccc(F)cc2)sc2nc(-c3ccccc3)cn12`: the activation is inactive: -3.92%.

Consider `Cc1nnc(N2C(=O)c3oc4ccccc4c(=O)c3C2c2ccc(F)cc2)s1` (stereo not given), for which the activation is inactive: 0.238%.

For the compound `COc1ccc(CCNC(=O)c2ccc(Cn3c(=O)c4ccccc4n(Cc4ccccc4Cl)c3=O)cc2)cc1OC`, the activation was inactive: -5.01%.

Turning to `COC(=O)c1c(-c2ccc(Cl)cc2)noc1N1CCN(c2cccc(OC)c2)CC1`, the activation was inactive: -12.3%.

On to `O=C1c2c(O)cccc2Cc2cccc(O)c21`, for which the activation is inactive: 47.1%.

For `Cc1ccc(C(=O)c2cn(Cc3cccc(F)c3)c3nc(C)ccc3c2=O)cc1`, the activation is inactive: -2.73%.

As to `Cc1ccc(NC(=O)Cn2cc(C(=O)c3cccs3)c3ccccc32)cc1C`, the activation is inactive: -11.4%.

In the case of `O=C(CCSCc1cnn(-c2ccccc2)c1-n1cccc1)NCc1ccc(Cl)cc1`, the activation was inactive: -12.4%.

As for `Cc1ccc(-n2c(=O)c3c(cnn3C)n(CC(=O)Nc3cc(C)ccc3C)c2=O)cc1`, the activation is inactive: 9.43%.

`O=C(CCn1cccn1)Nc1cccc(C(F)(F)F)c1`: the activation is inactive: -2.25%.

Regarding `Cc1oc2ncnc(N3CCOCC3)c2c1C(=O)NCc1ccccc1`, the activation was inactive: -1.56%.

On to `COc1ccc(C(=O)NCc2ccc3c(c2)CCN3C(=O)c2cccc(C)c2)cc1OC`, for which the activation was inactive: -11%.

Take `Cc1nc2sccn2c(=O)c1S(=O)(=O)N1CCN(c2ccc(F)cc2)CC1`: the activation is inactive: -13.2%.

`COc1ccc(CCNC(=O)CSc2nc3ccccc3nc2Cc2ccc(Cl)cc2)cc1OC`: the activation is inactive: -9.83%.

In the case of `O=C(O)CCCC[P+](c1ccccc1)(c1ccccc1)c1ccccc1`, the activation was inactive: -9.91%.

On to `CC(C)Cn1c(-c2ccc(S(=O)(=O)N3CCCC3)cc2)csc1=Nc1ccccc1`, for which the activation is inactive: 41.8%.

As for `CCCN(Cc1cccs1)C(=O)Nc1ccc(Br)c(C)c1`, the activation was inactive: -1.83%.

As for `CCCCOc1ccccc1NC(=O)Cn1c(-c2cncs2)nc2ccccc21`, the activation was inactive: -12.7%.

For `Cc1oc(-c2ccccc2)nc1CNS(=O)(=O)c1ccc(Cl)cc1`, the activation was active: 115%.

`O=C(NC1CC(=O)N(c2ccccc2)C1)c1cc2ccccc2o1` (stereo not given): the activation is inactive: -2.04%.

Take `CCOc1ccc(-c2cc(C(=O)NCc3ccc(OC)cc3)c3c(-c4ccc(F)cc4)[nH]nc3n2)cc1`: the activation is inactive: -14.5%.

In the case of `CCCOc1ccc(NC(=O)CC2C(=O)N(c3cccc(C)c3)C(=O)N2CCc2ccncc2)cc1` (stereo not given), the activation was inactive: -21.8%.

For the compound `CN1CCN(Cc2c(O)ccc3cc(-c4ccccc4)c(=O)oc23)CC1`, the activation was inactive: 3.68%.

`COc1ccc(Nc2nc3c(S(=O)(=O)c4ccccc4)nnn3c3ccc(Cl)cc23)cc1OC`: the activation is inactive: 4.02%.

`CCOC(=O)c1cccc(NC(=O)c2cc3c(=O)n(Cc4cccnc4)ccc3nc2C)c1`: the activation was inactive: -7.91%.

With `Cc1cccc(-c2nc(N3CCN(c4ccc(F)cc4)CC3)c3ccccc3n2)c1`, the activation was inactive: 3.35%.

For the compound `CCc1ccc(C(=O)c2cn(CC(=O)Nc3ccc(OC)cc3)c3cc4c(cc3c2=O)OCCO4)cc1`, the activation is inactive: 23.9%.

Regarding `O=C(Nc1ccc(OC(F)(F)F)cc1)C(NS(=O)(=O)c1cccc2nsnc12)c1ccccc1` (stereo not given), the activation is inactive: -25.6%.

Regarding `O=C(O)CCCn1cc(NC(=O)COc2ccccc2F)cn1`, the activation is inactive: -1.3%.

Take `Cc1ccc(C)c(N2CCN(C(=O)c3cccn4c(=O)c5ccccc5nc34)CC2)c1`: the activation is inactive: 1.4%.

In the case of `CC(C)C[C@@H](N)C(=O)O`, the activation is inactive: -10.7%.

Take `CCCCOC(=O)c1ccc(NC(=O)c2cc(=O)c3ccccc3o2)cc1`: the activation was inactive: -3.34%.

`Cc1cc(SCC(=O)Nc2ccc(C(F)(F)F)cc2)nc(=O)[nH]1`: the activation was inactive: 18.5%.

For `CCOc1ccc(NC(=O)c2ncn(-c3ccccc3)n2)cc1`, the activation is inactive: 12.2%.

For `Cc1ccc(-c2nnn3c2nc(N2CCC(C)CC2)c2ccccc23)cc1`, the activation was inactive: 26.3%.

As for `Cc1ccc(OCCSc2nc3ccccc3n2CC(=O)NC(C)C)cc1`, the activation is inactive: -1.24%.

Consider `O=C1CSC2(C(=O)N(Cc3c(F)cccc3Cl)c3ccccc32)N1c1ccc(F)c(F)c1` (stereo not given), for which the activation is inactive: -8.44%.

In the case of `O=C(CSc1ncc2c(n1)-c1cc(Cl)ccc1N(Cc1ccccc1)S2(=O)=O)NCc1ccccc1`, the activation was inactive: -21.9%.

For `Cc1ccc(C(=O)Nc2nnc(S(=O)(=O)N3CCCc4ccccc43)s2)cc1`, the activation was inactive: 28.5%.

With `CCOc1ccc(S(=O)(=O)NCCc2csc3nc(-c4cccc(C)c4)nn23)cc1`, the activation is inactive: 3.28%.

With `Fc1ccc(Nc2c(-c3c[nH]c4ccccc34)nc3ccccn23)cc1`, the activation was inactive: 11.5%.

Regarding `Cc1cccc(CSc2ccc3nnc(CCNS(=O)(=O)c4ccccc4)n3n2)c1`, the activation is inactive: -29.3%.

Turning to `COCCCNC(=O)C1CCN(C(=O)c2cc3sccc3n2Cc2ccc(Cl)cc2)CC1`, the activation is inactive: 2.5%.

With `COc1ccc(CCNC(=O)c2ccc(CSCc3ccc(C)cc3)o2)cc1OC`, the activation is inactive: 11.5%.

As for `COc1ccc(C(=O)Nc2ccc3nc(N4CCCCC4)cc(C)c3c2)cc1OC`, the activation was inactive: -13.2%.

As for `Cc1nc2c(C(=O)NCCc3ccccc3)c[nH]n2c(=O)c1Cc1ccccc1F`, the activation is inactive: 18%.

For `COc1cccc(C(=O)Nc2ccc(C(=O)OCc3cc(=O)n4cc(C)sc4n3)cc2)c1`, the activation is inactive: -23.7%.

With `O=S(=O)(c1ccc(Cl)cc1)N1CCC(c2ccncc2)CC1`, the activation is inactive: -3.68%.

Regarding `O=C(Nc1nnc(S(=O)(=O)N2CCOCC2)s1)c1cccc(Br)c1`, the activation is active: 93.4%.

Turning to `COc1cc(NS(=O)(=O)c2cc3c(cc2C)n(C)c(=O)c(=O)n3C)cc(OC)c1`, the activation was inactive: 7.57%.

`Cc1ccc(-c2cc3ncc4c(n3n2)-c2ccccc2OC4)cc1`: the activation was inactive: -2.01%.

Take `CCC(Sc1ccc2nnc(CCNS(=O)(=O)c3ccc(OC)cc3)n2n1)C(=O)OC` (stereo not given): the activation was inactive: -16%.

Consider `COc1cc(NC(=O)c2cc3cc4ccc(OC)c(Cl)c4nc3s2)cc(OC)c1`, for which the activation is inactive: -19.2%.

For `COc1cc(NC(=O)NCCn2nnc3cc(S(=O)(=O)N(C)C)ccc32)cc(OC)c1OC`, the activation is inactive: -5.47%.

Regarding `Cc1cc(C)cc(NC(=O)CSc2nc3c(cnn3-c3ccc(F)cc3)c(=O)[nH]2)c1`, the activation is inactive: -4.8%.

As to `Cc1nc2ccc(S(=O)(=O)NCC(=O)Nc3ccc(C)c(Cl)c3)cc2s1`, the activation was inactive: -4.76%.

With `Cc1ccccc1C(=O)NC1(C(F)(F)F)C(=O)Nc2c1c(=O)[nH]c(=O)n2CCc1ccccc1` (stereo not given), the activation is inactive: 0.93%.

As to `COc1ccc(-c2nc3c4ccccc4n(CC(=O)Nc4ccc(C(C)=O)cc4)c(=O)n3n2)cc1`, the activation is inactive: 7.47%.

Take `Cc1cccc(NC(=O)CN(C)S(=O)(=O)c2cnc[nH]2)c1C`: the activation is inactive: 11.3%.

For `Cc1ccc(Cl)cc1NC(=O)c1cc(-c2ccc3c(c2)OCCO3)on1`, the activation is inactive: 4.24%.

On to `O=C(Cc1ccc(NC(=O)N2CCCCc3ccccc32)cc1)Nc1ccccc1Br`, for which the activation was inactive: -1.25%.

On to `Cc1cc(C)c(NC(=O)CN2C(=O)CCn3nc(-c4cccn4C)cc32)c(C)c1`, for which the activation was inactive: -3.84%.

For `Cc1ccc(-n2ncc(C(=O)NCCCN3CCN(C)CC3)c2C2CCN(C(=O)OC(C)(C)C)CC2)cc1`, the activation is inactive: -2.65%.

In the case of `Cc1ccccc1CN1c2ccccc2-c2nc(SCC(=O)Nc3cc(F)ccc3F)ncc2S1(=O)=O`, the activation is inactive: 17.4%.

For the compound `CCCCC(=O)N1CCN(c2nc3c(C)c(C)ccc3s2)CC1`, the activation is active: 69.1%.

With `CCCCNc1cc(N2CCN(C3CCCCC3)CC2)c2noc3c2c1C(=O)c1ccccc1-3`, the activation was inactive: -6.69%.

Consider `Cc1cc(C)c(NC(=O)CSc2cn(CC(=O)N3CCOCC3)c3ccccc23)c(C)c1`, for which the activation is inactive: -14.8%.

Consider `CCOc1ccc(NC(=O)c2oc3ccccc3c2NC(=O)Cc2cccs2)cc1`, for which the activation is inactive: 6.06%.

On to `CCN1CCN(C(=O)c2ccc3c(c2)N(Cc2ccc(Cl)cc2)C(=O)c2ccccc2S3=O)CC1` (stereo not given), for which the activation was inactive: 0.619%.

On to `CCc1ccc(Cn2c(CNS(=O)(=O)c3ccc4c(c3)CCCC4)nc3cccnc32)cc1`, for which the activation was inactive: -35.2%.

For the compound `Cc1cc(C)c2c(n1)SCC(=O)N2CC(=O)Nc1cccc(C)c1C`, the activation was inactive: -19.2%.

Take `COc1cccc(Cn2c(=O)n(CC3CCC(C(=O)N4CCOCC4)CC3)c(=O)c3sccc32)c1` (stereo not given): the activation was inactive: -5.14%.

For `Cc1oc2ncn(CC(C)C)c(=O)c2c1C(=O)NCCCN1CCCCC1C` (stereo not given), the activation is inactive: 7.09%.

Turning to `CCc1ccc2c(c1)c(=O)c(C(=O)c1ccc(C)cc1)cn2CC(=O)Nc1ccccc1C`, the activation was inactive: -10.3%.

On to `CCc1ccc2c(c1)c(=O)c(C(=O)c1ccccc1)cn2CC(=O)Nc1ccc(C)c(Cl)c1`, for which the activation was inactive: 4.8%.

`C#CC(N)CCC(=O)O` (stereo not given): the activation is inactive: 0.435%.

In the case of `COc1ccc(-c2nnc(SCC(=O)NCCc3ccccc3)nc2-c2ccc(OC)cc2)cc1`, the activation was inactive: -34.2%.

Regarding `Cc1cccc(C)c1OCC(=O)Nc1c(C(=O)c2ccccc2)oc2ccccc12`, the activation is inactive: 0.671%.
